{"source": "PubChem BioAssay AID1508642", "about": "(National Center for Advancing Translational Sciences (NCATS), 2021)", "note": "About 200 (0.47%) of roughly 43,000 compounds were called active. Inconclusive results (about 12%) are left out. The call rests on the fitted dose curve; in most records, active means well fitted cell-killing curve with a large enough effect; inconclusive means small, poorly fitted or top-dose-only effect, or effect the other way; inactive means flat fitted curve, though single readings scatter. The list shows a part of the results. On the % scale 0 is the no-effect control and ±100 the full control effect."}
{"assay": "Cell viability qHTS assay in S16 Pmp22-F2sN cells; further: nearly all actives have a fitted effect of over 65% in size", "conditions": "S16 Pmp22-F2sN Schwann cells (luciferase reporters placed in the Pmp22 gene) viability, CellTiter-Glo, 24 h; series mostly up to 57.5 µM; activity change, negative = cytotoxicity: at the top concentration", "in_short": "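CellTiter-Glo counter-screen, qHTS, 1536-well. Cells: S16(c9) Pmp22-F2sN, 500-1,000/well in DMEM + 10% FBS. Cpd 23 nL pin transfer, 24 h, 37C/5% CO2. Read: luminescence, CCD imager.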"}
{"molecule": "COc1ccc(CCNC(=O)CCc2c(C)nc3c4cccnc4nn3c2C)cc1OC", "activity change, negative = cytotoxicity": "inactive: -0.669%"}
{"molecule": "Cc1c(C(=O)OCC2CCCCC2)[nH]c2c1C(=O)CC(c1ccccc1Cl)C2", "note": "(stereo unspecified)", "activity change, negative = cytotoxicity": "inactive: -13.5%"}
{"molecule": "CCc1ccc(-n2nc(C)c3c(C)cc(=O)n(CC(=O)Nc4cc(C)ccc4C)c32)cc1", "activity change, negative = cytotoxicity": "inactive: -23.1%"}
{"molecule": "COc1ccc(NC(=O)c2ncn(-c3ccccc3)n2)cc1Cl", "activity change, negative = cytotoxicity": "inactive: -9.8%"}
{"molecule": "Cc1ccc(Cn2c(=O)n(CCCCC(=O)NCc3ccc4c(c3)OCO4)c(=O)c3ccccc32)cc1", "activity change, negative = cytotoxicity": "inactive: -4.87%"}
{"molecule": "COc1cccc(N2CCN(C3=NS(=O)(=O)C(c4ccc(C)cc4)=C3C)CC2)c1", "activity change, negative = cytotoxicity": "inactive: 0.451%"}
{"molecule": "CCC(Sc1nnc2c(n1)[nH]c1ccccc12)C(=O)Nc1ccccc1OC", "note": "(stereo unspecified)", "activity change, negative = cytotoxicity": "inactive: -3.92%"}
{"molecule": "Cc1cc(C)cc(C(=O)NCCc2csc(-c3ccc(C(F)(F)F)cc3)n2)c1", "activity change, negative = cytotoxicity": "inactive: -9.74%"}
{"molecule": "Cn1cc(S(=O)(=O)N2CCCC2)cc1C(=O)N1CCN(c2cccc(Cl)c2)CC1", "activity change, negative = cytotoxicity": "inactive: 7.56%"}
{"molecule": "Cc1cc(C)c(NC(=O)Cn2c(=O)n(CC3CCCO3)c(=O)c3ccccc32)c(C)c1", "note": "(stereo unspecified)", "activity change, negative = cytotoxicity": "inactive: 8.63%"}
{"molecule": "Cc1cc2c(cc1NS(=O)(=O)c1ccc(NC(=O)CC(C)C)cc1)n(C)c(=O)c(=O)n2C", "activity change, negative = cytotoxicity": "inactive: 1.12%"}
{"molecule": "Cc1ccc(N2C(=O)c3n[nH]c(C)c3C2c2ccccc2Cl)cc1", "note": "(stereo unspecified)", "activity change, negative = cytotoxicity": "inactive: -0.279%"}
{"molecule": "CC(=O)Nc1c(C)nn(-c2ccccc2)c1N1CCC(C(=O)Nc2cc(F)ccc2F)CC1", "activity change, negative = cytotoxicity": "inactive: -5.67%"}
{"molecule": "COc1ccccc1NC(=O)N1CCN(Cc2nc3ccc(C)cc3o2)CC1", "activity change, negative = cytotoxicity": "inactive: -5.45%"}
{"molecule": "CN(C)c1ccc(C(CNC(=O)c2ccccc2Cl)N2CCCC2)cc1", "note": "(stereo unspecified)", "activity change, negative = cytotoxicity": "inactive: 0.392%"}
{"molecule": "Cc1cc(C)c(NC(=O)C2CCN(S(=O)(=O)c3c(C)noc3/C=C/c3ccccc3F)CC2)c(C)c1", "activity change, negative = cytotoxicity": "inactive: 6.86%"}
{"molecule": "COc1ccc(S(=O)(=O)c2c(Nc3ccc(C)cc3C)sc(C(=O)c3ccc(F)cc3)c2N)cc1", "activity change, negative = cytotoxicity": "inactive: -2.69%"}
{"molecule": "O=C(NCc1ccccc1)C(=O)NCC(c1cccs1)S(=O)(=O)c1cccs1", "note": "(stereo unspecified)", "activity change, negative = cytotoxicity": "inactive: 2.86%"}
{"molecule": "Cc1nnsc1C(=O)Oc1ccc(Cl)cc1", "activity change, negative = cytotoxicity": "inactive: 8.13%"}
{"molecule": "CN1C(=O)Cc2cc(S(=O)(=O)NCc3ccc(Cl)cc3)ccc21", "activity change, negative = cytotoxicity": "inactive: 0.12%"}
{"molecule": "CC(C)(C)C1CCc2c(sc(NC(=O)c3ccco3)c2C(=O)Nc2ccccc2Cl)C1", "note": "(stereo unspecified)", "activity change, negative = cytotoxicity": "inactive: -4.4%"}
{"molecule": "CCOc1ccc(C(=O)OCc2cc(=O)n3nc(C4CC4)sc3n2)cc1", "activity change, negative = cytotoxicity": "inactive: 1.76%"}
{"molecule": "COc1cc(Cl)c(C)cc1NC(=O)c1cc2c(=O)oc3ccccc3c2s1", "activity change, negative = cytotoxicity": "inactive: 7.36%"}
{"molecule": "COc1ccc(CNC(=O)C2=CC(c3ccc(OC)c(OC)c3)=NS(=O)(=O)N2C)cc1", "activity change, negative = cytotoxicity": "inactive: 2.96%"}
{"molecule": "Cc1cc(C(=O)N2CCN(c3cccc(Cl)c3)CC2)c2c(C)nn(-c3ccccc3Cl)c2n1", "activity change, negative = cytotoxicity": "inactive: -19.9%"}
{"molecule": "CCOCCCNC(=O)c1cn(CC)c2ccc(S(=O)(=O)N3CCOCC3)cc2c1=O", "activity change, negative = cytotoxicity": "inactive: 1.5%"}
{"molecule": "CCOC(=O)CSc1nc2ccc(NC(=O)COc3ccc(F)cc3)cc2s1", "activity change, negative = cytotoxicity": "inactive: 8.17%"}
{"molecule": "Cc1ccc(CNC(=O)C2CCN(S(=O)(=O)c3ccc4nc5c(c(C(=O)O)c4c3)CC(C)CC5)CC2)cc1", "note": "(stereo unspecified)", "activity change, negative = cytotoxicity": "inactive: 1.11%"}
{"molecule": "CCc1cnc2c(c1SCC(=O)NCc1ccc(C)cc1)c(=O)n(C)c(=O)n2C", "activity change, negative = cytotoxicity": "inactive: 11.9%"}
{"molecule": "Cc1ccccc1OCC(=O)Nc1ccc(-c2nc3cc(Cl)cc(Cl)c3o2)cc1", "activity change, negative = cytotoxicity": "inactive: 6.19%"}
{"molecule": "COc1cccc(NC(=O)N(CCC(C)C)C2CCN(C(C)C)CC2)c1", "activity change, negative = cytotoxicity": "inactive: 17.1%"}
{"molecule": "CC(=O)c1ccc(NS(=O)(=O)c2ccc(Br)s2)cc1", "activity change, negative = cytotoxicity": "inactive: -3%"}
{"molecule": "COc1cccc(-n2c(=O)c3sc4ccccc4c3n(Cc3c(F)cccc3Cl)c2=O)c1", "activity change, negative = cytotoxicity": "inactive: 6.14%"}
{"molecule": "Cc1ccc(-n2nc(CO)c(C(=O)NCCC(C)C)n2)cc1C", "activity change, negative = cytotoxicity": "inactive: -2.86%"}
{"molecule": "CCc1cccc(NC(=O)CSc2nnc(-c3cc4occc4n3C)n2-c2ccccc2C)c1", "activity change, negative = cytotoxicity": "inactive: -24.1%"}
{"molecule": "Cc1ccc(CNC(=O)c2ccc(Cn3c(SCc4ccc(F)cc4)nc4cccnc43)cc2)o1", "activity change, negative = cytotoxicity": "inactive: 5.25%"}
{"molecule": "O=c1n(Cc2ccc(F)cc2)c2ccccc2c2nc(-c3ccccc3)nn12", "activity change, negative = cytotoxicity": "inactive: 4.41%"}
{"molecule": "COc1cccc(/C=C/c2nc(C#N)c(NC3CCCCC3)o2)c1", "activity change, negative = cytotoxicity": "inactive: 0.0421%"}
{"molecule": "CSc1ccc(CCNC(=O)Cn2c(C)c3cnn(-c4ccccc4)c(=O)c3c2C)cc1", "activity change, negative = cytotoxicity": "inactive: 0.676%"}
{"molecule": "Cc1ccc(N2C(=O)C(CC(=O)Nc3cccc(F)c3)N(CCc3ccccc3F)C2=O)cc1", "note": "(stereo unspecified)", "activity change, negative = cytotoxicity": "inactive: -8.43%"}
{"molecule": "CCCN(C(=O)CCc1nc(-c2ccc(C)cc2)no1)c1ccc(OCC)cc1", "activity change, negative = cytotoxicity": "inactive: -15.6%"}
{"molecule": "CCOC(=O)c1c(C)oc2nc(C)nc(NCC3CCN(Cc4cc(C)ccc4C)CC3)c12", "activity change, negative = cytotoxicity": "inactive: 8.95%"}
{"molecule": "CCOC(=O)c1c(NC(=O)c2cc(-c3cccc(Cl)c3)on2)sc(C(C)=O)c1C", "activity change, negative = cytotoxicity": "inactive: 2.94%"}
{"molecule": "O=C(C1COc2ccccc2O1)N(Cc1cccnc1)c1nc2c(F)cccc2s1", "note": "(stereo unspecified)", "activity change, negative = cytotoxicity": "inactive: -4.54%"}
{"molecule": "CC1CCN(S(=O)(=O)c2cc(C(=O)N3CCN(c4cccc(Cl)c4)CC3)n(C)c2)CC1", "activity change, negative = cytotoxicity": "inactive: -14.1%"}
{"molecule": "Cc1ccc(Nc2c3c(nc4nncn24)CCC3)c(C)c1", "activity change, negative = cytotoxicity": "inactive: 1.89%"}
{"molecule": "Cc1ccc(NC(=O)CN2C(=O)c3cccnc3Sc3ccccc32)c(Br)c1", "activity change, negative = cytotoxicity": "inactive: 2.7%"}
{"molecule": "Cc1ccc(NC(=O)Cn2nnc(-c3ccccc3)n2)c(C)c1", "activity change, negative = cytotoxicity": "inactive: 11.5%"}
{"molecule": "CCOc1ccc(S(=O)(=O)c2cn(CC)c3ccc(F)cc3c2=O)cc1", "activity change, negative = cytotoxicity": "inactive: -17.6%"}
{"molecule": "CCOC(=O)c1nnn(C(CC)C(=O)Nc2ccc(F)cc2)c1C(=O)OCC", "note": "(stereo unspecified)", "activity change, negative = cytotoxicity": "inactive: -0.813%"}
{"molecule": "COc1ccccc1C1C(C(=O)N2CCCCC2)=C(C)Nc2nc3ccccc3n21", "note": "(stereo unspecified)", "activity change, negative = cytotoxicity": "inactive: 22.2%"}
{"molecule": "COc1ccc(N(CC(=O)N2CCc3ccccc3C2)S(=O)(=O)c2ccccc2)cc1", "activity change, negative = cytotoxicity": "inactive: -5.22%"}
{"molecule": "COC(=O)c1cc(NC(=O)CC2C(=O)OCCN2Cc2ccccc2)cc(C(=O)OC)c1", "note": "(stereo unspecified)", "activity change, negative = cytotoxicity": "inactive: 6.48%"}
{"molecule": "COc1cccc(OCC(=O)NC2CC(=O)N(c3cccc(OC)c3)C2)c1", "note": "(stereo unspecified)", "activity change, negative = cytotoxicity": "inactive: 0.603%"}
{"molecule": "Cc1ccccc1CSc1nc2c(sc3ccccc32)c(=O)n1CCCC(=O)NCCCOC(C)C", "activity change, negative = cytotoxicity": "inactive: -5.24%"}
{"molecule": "CC(C)(C)OC(=O)N1CCC(c2c(C(=O)N3CCN(C(=O)c4ccco4)CC3)cnn2-c2cccc(Cl)c2)CC1", "activity change, negative = cytotoxicity": "inactive: 6.82%"}
{"molecule": "CC(=O)c1ccc(NC(=O)c2nc(-c3ccc(Cl)cc3)n3c2CCCCC3)cc1", "activity change, negative = cytotoxicity": "inactive: -1.09%"}
{"molecule": "COCc1cc(C)nc2c1C(=O)NC(c1ccc(NC(C)=O)cc1)N2Cc1ccccc1", "note": "(stereo unspecified)", "activity change, negative = cytotoxicity": "inactive: 5.4%"}
{"molecule": "CS(=O)(=O)CC[C@@H](C(=O)NCCc1ccccc1)N1Cc2ccccc2C1=O", "activity change, negative = cytotoxicity": "inactive: 2.68%"}
{"molecule": "Cc1cc(C)c2c(=O)cc(C(=O)Nc3sc4c(c3C(=O)NCc3ccco3)CCCC4)oc2c1", "activity change, negative = cytotoxicity": "inactive: -0.284%"}
{"molecule": "Cc1cccc(OCC(=O)N2CCC(c3nc4ccccc4o3)CC2)c1C", "activity change, negative = cytotoxicity": "inactive: 22.6%"}
